58 compounds from PubChem BioAssay AID463173 (ICCB-Longwood Screening Facility, Harvard Medical School, 2010) can be followed below.

The structures appear in SMILES notation. Out of some 52,000 compounds screened, about 4,300 (8.3%) were called active. Rule as the data show it: active = survival mostly below about 52% (no sharp cut-off); inactive = mostly above about 56%. Some of the results follow.

This assay relates to DeltatarO mutant. Kind of assay: growth inhibition of S. aureus wild type versus tarO mutant, primary screen, teichoic acid synthesis inhibitors, RN4220, OD600 (AID 463173). Conditions: OD600, 18 h, hits give low values, screened at 18.75 µg/mL (by protocol).
Take `O=C(CSc1cn(CC(=O)N2CCCCCC2)c2ccccc12)Nc1ccccc1F`: the survival is inactive: 77%.

With `COc1ccc(CCNC(=O)c2cc(-c3ccccc3)nc3ccccc23)cc1OC`, the survival was inactive: 58%.

As to `COC(=O)c1scc(-c2ccc(C)cc2)c1S(=O)(=O)Nc1cccc(C(F)(F)F)c1`, the survival was inactive: 122%.

With `CCn1cc(C(=O)OCC(=O)Nc2cc(C)cc(C)c2)c(=O)c2ccc(C)nc21`, the survival is inactive: 64%.

As for `COc1ccc(-c2nc(-c3ccccc3)c(-c3ccccc3)[nH]2)cc1Br`, the survival was inactive: 59%.

Take `Cc1cc(C)cc(NC(=O)Cn2c(=O)oc3cc(S(=O)(=O)N4CCCC4)ccc32)c1`: the survival is inactive: 142%.

As for `O=S(=O)(c1ccc2ccccc2c1)n1nc(-c2ccco2)nc1NCc1cccc(Cl)c1`, the survival was inactive: 79%.

For `Cc1ccc(CNC(=O)c2ccc3c(c2)N(Cc2ccccc2F)C(=O)c2ccccc2S3(=O)=O)cc1`, the survival was inactive: 74%.

For `COc1cccc(CNC(=O)c2cnc(N3CCCC3)nc2C)c1`, the survival is inactive: 67%.

In the case of `COc1ccc(S(=O)(=O)c2cn(C)c3cc(N4CCCC4)c(F)cc3c2=O)cc1`, the survival is inactive: 94%.

As to `COC(=O)CNC(=O)C(Cc1ccccc1)NS(=O)(=O)c1ccc2c(c1)c(=O)n(C)c(=O)n2C` (stereo not drawn), the survival is inactive: 87%.

Turning to `CCN(C(=O)C1CCN(S(=O)(=O)c2ccc3c(c2)CCCN3C(=O)C2CCC2)CC1)c1cccc(C)c1`, the survival is inactive: 90%.

As to `Cc1c(Cl)cccc1NC(=O)c1cnc2sc(N3CCCC3)nn2c1=O`, the survival was inactive: 95%.

For `COCCN1Cc2cccc(C(=O)Nc3ccc(C)cc3C)c2C1=O`, the survival was inactive: 87%.

As to `COc1ccc(CCCc2n[nH]c(=S)o2)c(C)c1`, the survival is inactive: 94%.

Take `Cc1cc2c(cc1S(=O)(=O)N1CCC(C)CC1)OCC(=O)N2`: the survival was inactive: 94%.

For `Cc1c(C(=O)NCc2ccc(N(C)C)cc2)oc2c1-c1nn(Cc3cccc(Cl)c3)cc1CC2`, the survival is inactive: 69%.

As for `COc1cc(NC(=O)c2nnn(CC(=O)Nc3ccccc3)c2N)cc(OC)c1`, the survival was inactive: 85%.

For `Cc1ccc2nc(-c3ccc(NC(=O)COc4c(C)ccc(C)c4C)cc3)sc2c1`, the survival is active: 38%.

As for `Cc1c(C(=O)O)nnn1-c1ccccc1`, the survival is inactive: 92%.

As for `O=C(NC1CCCCC1)c1ccc2c(c1)N(Cc1ccccc1)C(=O)c1ccccc1S2`, the survival is active: 46%.

Turning to `O=C(CN1C(=O)C2(SCC(=O)N2c2ccccc2)c2ccccc21)NCc1ccccc1Cl` (stereo not drawn), the survival was inactive: 90%.

Turning to `COc1ccc(S(=O)(=O)N2C3CCC2CC(NC(=O)NC2CCCCC2)C3)cc1` (stereo not drawn), the survival was inactive: 90%.

For `CSc1nc(-c2ccc(F)cc2)nc2c1Cc1c(CO)cnc(C)c1O2`, the survival was inactive: 59%.

For the compound `CCCc1nn2c(=O)cc(COC(=O)c3ccc(NC(=O)C(C)Oc4ccccc4)cc3)nc2s1` (stereo not drawn), the survival is inactive: 74%.

For the compound `c1ccc(C2=NN3COc4ccccc4C3C2)cc1` (stereo not drawn), the survival was inactive: 87%.

With `CCCCNc1nc(Oc2ccc(=O)n(C)n2)nc(N(C)C)n1`, the survival was inactive: 79%.

For `Cc1ccc(C(C(=O)NC2CC2)N(C(=O)Cn2nnc(-c3cccs3)n2)c2cnc3ccccc3c2)o1` (stereo not drawn), the survival is inactive: 88%.

As for `O=C1SCC(c2ccccc2)S1` (stereo not drawn), the survival is inactive: 78%.

Take `O=C(O)c1cc(C2CC2)on1`: the survival is inactive: 92%.

Regarding `CCOc1ccc(CCNC(=O)Cn2nnc(-c3ccc(OC)c(OC)c3)n2)cc1OCC`, the survival was inactive: 65%.

With `CN1CCN(C(CNC(=O)C(=O)Nc2ccc(F)cc2F)c2ccc3c(c2)OCO3)CC1` (stereo not drawn), the survival is inactive: 93%.

Consider `CC(C)Oc1ccc(CNS(=O)(=O)c2cnc(N)nc2)cc1`, for which the survival is inactive: 115%.

`CCOc1cc(CNCCSc2nnnn2-c2ccccc2)cc(Cl)c1OC`: the survival was inactive: 77%.

With `Cc1c(Cl)cccc1NC(=O)CCn1c(=O)c2cccn2c2ccccc21`, the survival was inactive: 49%.

Regarding `Cc1ccc2c(CC(=O)Nc3ccccc3C(F)(F)F)coc2c1C`, the survival is inactive: 96%.

With `CC(CNC(=O)C1CCN(Cc2cc3ccccc3n2Cc2ccccc2)CC1)c1ccccc1` (stereo not drawn), the survival was active: 47%.

With `CCOc1ccccc1NC(=O)CSc1nccn1-c1ccc(Cl)cc1`, the survival was inactive: 85%.

With `O=C(Nc1ccccc1Cl)c1cnsn1`, the survival is inactive: 90%.

Turning to `COc1ccc(C(=O)c2cn(Cc3ccc(C)cc3)c3cc4c(cc3c2=O)OCO4)cc1`, the survival is inactive: 107%.

For `COc1ccccc1-c1noc(CSc2nc3ccc(C)cc3[nH]2)n1`, the survival was inactive: 102%.

Take `O=C(CSc1cn(CC(=O)N2CCCCC2)c2ccccc12)Nc1ccccc1F`: the survival was active: 70%.

Turning to `COc1cc(NC(=O)CCS(=O)(=O)c2nc(-c3cccs3)cc(C(F)(F)F)n2)cc(OC)c1OC`, the survival was inactive: 84%.

Turning to `CS(=O)(=O)N(CC(=O)NCCSc1ccccc1)c1cc(C(F)(F)F)ccc1Cl`, the survival was inactive: 56%.

On to `Oc1c(Br)cc(Br)cc1-c1nc2ccccc2s1`, for which the survival is inactive: 126%.

For the compound `COc1cccc(C2C(C(=O)Nc3ccccc3)=C(C)Nc3nc(-c4ccccc4)nn32)c1` (stereo not drawn), the survival was active: 57%.

On to `CS(=O)(=O)N(CCc1ccccc1)CC(=O)N1CCOCC1`, for which the survival is inactive: 97%.

As to `CCc1ccc(OC(C)C(=O)Nc2c(C(=O)c3ccccc3)oc3ccccc23)cc1` (stereo not drawn), the survival is inactive: 38%.

Regarding `COc1ccc(Cl)cc1NC(=O)c1cc2c(s1)-c1ccccc1OC2`, the survival is inactive: 74%.

As for `COCCNC(=O)CCc1nc2cccnc2n1Cc1ccc(OC)cc1`, the survival is inactive: 137%.

For `CC(=O)c1ccc(N2CCN(C(=O)c3cc4cc5cc(C)ccc5nc4s3)CC2)cc1`, the survival was inactive: 93%.

In the case of `CCN(CC)c1cc(C)c2cc(NC(=O)/C=C/c3ccc(C)cc3)ccc2n1`, the survival was inactive: 43%.

Take `Cc1ccc(C)c(NC(=O)C2CCCN(S(=O)(=O)c3ccc4[nH]c(=O)ccc4c3)C2)c1` (stereo not drawn): the survival is inactive: 83%.

Consider `Cc1ccc(C(=O)c2oc3ccccc3c2NC(=O)c2cc(-c3ccccc3)on2)cc1F`, for which the survival was inactive: 86%.

For `CCCN(CCC)C(=O)C1CCCN(S(=O)(=O)c2ccc3c(c2)oc(=O)n3C)C1` (stereo not drawn), the survival was inactive: 92%.

In the case of `Cc1ccc(-c2nc(CS(=O)CC(=O)N3CCN(c4ccccc4)CC3)c(C)o2)cc1` (stereo not drawn), the survival is inactive: 62%.

In the case of `COc1ccc(-c2noc(-c3ccc(NC4CCCC4)c([N+](=O)[O-])c3)n2)cc1`, the survival was inactive: 108%.

As to `O=C(Nc1ccccc1-c1ccccc1)NC1CCN(CC(=O)N2CCOCC2)CC1`, the survival is inactive: 73%.
